This is one part of the list. The full chains were built here from the parent and the listed change. Inactive controls read about 0.05.
B1: TEV protease; numbered along this chain (parent)
chain: MGESLFKGPRDYNPISSSICHLTNESDGHTTSLYGIGFGPFIITNKHLFRRNNGTLVVQSLHGVFKVKDTTTLQQHLVDGRDMIIIRMPKDFPPFPQKLKFREPQREERICLVTTNFQTKSMSSMVSDTSCTFPSGDGIFWKHWIQTKDGQCGSPLVSTRDGFIVGIHSASNFTNTNNYFTSVPKNFMELLTNQEAQQWVSGWRLNADSVLWGGHKVFMVKPEEPFQPVKEATQL

Variants of: B1
Assay: raw area under fraction-flipped curve 0-4 h after induction (AUC4h, not background-subtracted), DNA-recorder readout of cleavage of the substrate (dimensionless); higher = more cleavage of the substrate by the protease variant
Details: temperature: 34 °C; time window: 0-4 h after rhamnose induction
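Also: Bxb1 expression induced with 0.2% (w/v) L-rhamnose at OD600 near 0.5, cultures sampled hourly, flipped fraction per protease–substrate barcode pair counted by paired-end Illumina sequencing.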

Variant | area with substrate ENLDFQS | area with substrate ENLEFQS | area with substrate ENLGFQS | area with substrate ENLKFQS | area with substrate ENLNFQS | area with substrate ENLPFQS | area with substrate ENLQFQS | area with substrate ENLRFQS | area with substrate ENLVFQS | area with substrate ENLWFQS | area with substrate ENLCFQS | area with substrate ENLFFQS | area with substrate ENLLFQS | area with substrate ENLSFQS | area with substrate ENLHFQS | area with substrate ENLIFQS | area with substrate ENLMFQS | area with substrate ENLTFQS
F133L | 0.0509 | 0.0619 | 0.0546 | 0.0755 | 0.0501 | 0.0547 | 0.0615 | 0.066 | 0.0844 | 0.0763 |  |  |  |  |  |  |  | 
T233Q | 0.0506 | 0.0637 |  | 0.0765 | 0.0691 | 0.049 |  | 0.0569 |  |  | 0.0775 | 0.0874 | 0.0475 | 0.0559 |  |  |  | 
P14K | 0.0684 | 0.0505 |  | 0.0715 | 0.0648 |  |  |  |  | 0.07 |  | 0.0783 | 0.0881 | 0.0653 | 0.0654 | 0.0803 | 0.0844 | 
V67S | 0.0627 | 0.0566 | 0.0565 | 0.0656 | 0.0627 |  | 0.0623 | 0.055 | 0.0881 | 0.0727 |  | 0.0625 | 0.0441 | 0.0636 | 0.062 | 0.0838 | 0.0637 | 
T23K | 0.0695 | 0.0655 | 0.0565 | 0.0742 | 0.058 | 0.0593 |  | 0.072 |  | 0.0594 |  | 0.0772 | 0.0684 | 0.0645 | 0.064 |  |  | 
S130E | 0.0627 | 0.0579 |  | 0.075 | 0.089 | 0.0589 |  |  |  |  |  | 0.0796 | 0.031 |  | 0.0563 |  |  | 
N177I | 0.0771 |  | 0.0655 | 0.0878 | 0.0568 |  |  | 0.061 |  | 0.0709 |  |  |  |  | 0.0749 | 0.136 |  | 
G162R | 0.0684 |  |  | 0.0625 | 0.062 | 0.0598 | 0.0877 | 0.0666 |  | 0.0463 | 0.0626 | 0.0715 |  | 0.0689 |  |  |  | 
G162L | 0.072 |  | 0.0713 | 0.0749 | 0.0665 | 0.0579 |  |  |  | 0.0637 | 0.073 | 0.0862 | 0.0733 |  |  | 0.0719 | 0.0483 | 
M219W | 0.0999 | 0.0651 |  | 0.0652 | 0.0637 | 0.0527 |  | 0.0819 |  |  | 0.0194 | 0.0687 | 0.0855 | 0.0733 |  | 0.0946 | 0.0737 | 
P184F | 0.0641 |  | 0.0636 | 0.0669 | 0.0688 | 0.0793 | 0.0565 | 0.0665 | 0.061 | 0.0499 | 0.0576 | 0.085 |  | 0.0705 | 0.0608 | 0.0648 |  | 
L156R | 0.0327 |  | 0.0378 | 0.0507 |  | 0.0492 |  |  | 0.0562 |  |  | 0.0536 |  | 0.0582 | 0.0511 |  | 0.0714 | 0.0506
R50C | 0.0601 |  |  | 0.0772 |  |  | 0.0615 | 0.083 |  | 0.0661 |  |  |  |  |  | 0.0906 |  | 
G202R | 0.0761 | 0.0653 | 0.0633 | 0.0652 |  | 0.0635 |  | 0.0608 |  |  | 0.0572 |  |  |  | 0.0396 |  |  | 
D27G | 0.0406 | 0.0311 |  | 0.0772 | 0.061 | 0.0519 |  | 0.0659 | 0.0704 |  |  |  | 0.0649 | 0.0551 | 0.0604 |  |  | 
A170Y | 0.0371 |  |  |  | 0.0634 | 0.0596 |  |  |  |  |  |  | 0.0646 | 0.0685 | 0.0563 | 0.0492 |  | 
F173E | 0.0572 |  | 0.0691 | 0.0698 | 0.0674 | 0.0414 | 0.0774 |  |  |  |  | 0.0992 | 0.0711 | 0.0579 |  |  |  | 

Reference: the supplement of paper PMC12217912
